According to publication PMC2565473, “A Ligand Peptide Motif Selected from a Cancer Patient Is a Receptor-Interacting Site within Human Interleukin-11” (PLoS ONE, 2008):
Results are given in words; binding and its absence hold for the method and conditions named. Some results given as binding are weak or reduced against the parent protein; the word gives no strength. For some assays here: Sequences can lack the tags named with a protein.

Protein sequences, listed by entry. Tags and fused reporters are not part of them. Residues count along the entry.
UniProt P02769, residues 25-607: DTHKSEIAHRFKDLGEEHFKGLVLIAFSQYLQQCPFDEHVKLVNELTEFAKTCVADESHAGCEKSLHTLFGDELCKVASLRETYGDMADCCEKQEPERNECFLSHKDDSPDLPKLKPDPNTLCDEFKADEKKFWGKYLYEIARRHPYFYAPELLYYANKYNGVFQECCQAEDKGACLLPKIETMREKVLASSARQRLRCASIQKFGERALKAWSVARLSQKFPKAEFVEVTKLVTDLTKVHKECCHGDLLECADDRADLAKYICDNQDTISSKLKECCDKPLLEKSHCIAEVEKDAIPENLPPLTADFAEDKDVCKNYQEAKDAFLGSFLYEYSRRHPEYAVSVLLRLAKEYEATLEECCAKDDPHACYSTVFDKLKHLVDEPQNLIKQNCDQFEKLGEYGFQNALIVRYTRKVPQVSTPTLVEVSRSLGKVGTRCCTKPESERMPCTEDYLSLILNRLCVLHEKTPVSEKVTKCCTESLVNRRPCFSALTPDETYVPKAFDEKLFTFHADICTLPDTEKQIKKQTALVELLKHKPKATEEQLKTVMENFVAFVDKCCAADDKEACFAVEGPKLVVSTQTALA
UniProt P48357, residues 22-839: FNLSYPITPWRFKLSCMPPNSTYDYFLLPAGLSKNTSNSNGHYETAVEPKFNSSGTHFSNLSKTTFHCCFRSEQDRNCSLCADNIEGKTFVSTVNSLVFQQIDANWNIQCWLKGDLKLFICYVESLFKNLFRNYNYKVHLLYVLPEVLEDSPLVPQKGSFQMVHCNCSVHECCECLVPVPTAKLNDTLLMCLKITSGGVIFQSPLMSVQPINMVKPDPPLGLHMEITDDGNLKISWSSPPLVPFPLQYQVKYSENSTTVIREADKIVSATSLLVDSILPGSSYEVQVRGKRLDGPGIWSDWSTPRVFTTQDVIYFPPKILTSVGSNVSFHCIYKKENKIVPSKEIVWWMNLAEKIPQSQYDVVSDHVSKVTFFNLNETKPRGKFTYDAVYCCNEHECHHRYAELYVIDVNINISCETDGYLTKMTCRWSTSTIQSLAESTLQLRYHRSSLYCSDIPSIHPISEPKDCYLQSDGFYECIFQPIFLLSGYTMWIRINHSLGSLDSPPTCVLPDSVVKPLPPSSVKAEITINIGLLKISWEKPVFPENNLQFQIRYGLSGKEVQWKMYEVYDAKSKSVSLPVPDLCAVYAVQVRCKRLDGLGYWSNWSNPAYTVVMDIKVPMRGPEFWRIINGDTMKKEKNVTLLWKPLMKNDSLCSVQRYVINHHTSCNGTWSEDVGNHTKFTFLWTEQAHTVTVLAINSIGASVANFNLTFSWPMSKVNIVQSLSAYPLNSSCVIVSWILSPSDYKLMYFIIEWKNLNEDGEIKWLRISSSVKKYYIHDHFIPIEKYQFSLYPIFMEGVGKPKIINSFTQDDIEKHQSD
UniProt P40189, residues 23-619: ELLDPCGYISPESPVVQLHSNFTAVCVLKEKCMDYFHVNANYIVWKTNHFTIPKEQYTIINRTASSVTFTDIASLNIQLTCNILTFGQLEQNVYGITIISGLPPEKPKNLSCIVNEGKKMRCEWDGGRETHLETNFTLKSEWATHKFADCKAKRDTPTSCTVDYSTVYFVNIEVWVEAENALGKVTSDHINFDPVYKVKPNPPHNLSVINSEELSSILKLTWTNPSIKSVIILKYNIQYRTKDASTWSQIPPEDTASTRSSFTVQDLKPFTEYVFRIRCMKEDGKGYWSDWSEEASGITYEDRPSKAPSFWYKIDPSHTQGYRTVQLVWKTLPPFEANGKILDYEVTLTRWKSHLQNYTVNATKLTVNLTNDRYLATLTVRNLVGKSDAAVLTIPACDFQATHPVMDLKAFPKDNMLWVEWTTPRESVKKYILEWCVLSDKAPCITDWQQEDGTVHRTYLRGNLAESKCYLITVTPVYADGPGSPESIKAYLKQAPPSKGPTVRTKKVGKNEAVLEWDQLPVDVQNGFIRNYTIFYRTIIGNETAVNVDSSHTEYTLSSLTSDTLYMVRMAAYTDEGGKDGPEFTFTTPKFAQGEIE

T1: IL-11Rα (recombinant, extracellular domain fused to the Fc region of human IgG) (human) (UniProt Q14626)
T1 sequence: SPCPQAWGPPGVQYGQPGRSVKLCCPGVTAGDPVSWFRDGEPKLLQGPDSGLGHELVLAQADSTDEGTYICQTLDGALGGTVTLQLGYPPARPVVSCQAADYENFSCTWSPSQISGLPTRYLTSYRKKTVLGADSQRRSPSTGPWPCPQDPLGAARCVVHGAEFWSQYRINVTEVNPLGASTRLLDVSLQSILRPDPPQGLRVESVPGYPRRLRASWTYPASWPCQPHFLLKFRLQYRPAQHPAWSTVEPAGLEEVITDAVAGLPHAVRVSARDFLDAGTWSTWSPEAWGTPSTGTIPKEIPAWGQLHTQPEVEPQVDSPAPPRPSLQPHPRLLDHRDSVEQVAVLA


Legend:
[1] = target: T1, IL-11Rα (recombinant, extracellular domain fused to the Fc region of human IgG) (human); assay: phage binding assay; alanine-scanning phage on immobilized IL-11Rα, done as a1; result given as grade of the ratio binding to IL-11Rα / binding to BSA; in duplicate, repeated at least four times; only the target purified
[2] = target: bovine serum albumin (bovine) (UniProt P02769); assay: phage binding assay; proteins immobilized (2 µg/ml) on microtiter wells overnight at 4°C, blocked with 3% BSA in PBS, incubated with 10^9 TU of phage for 1 h at room temperature, washed twelve times with PBS; bound phage recovered by bacterial infection; only the target purified
[3] = target: leptin receptor (extracellular domain fused to the Fc region of human IgG) (UniProt P48357); assay: as above
[4] = target: gp130 (recombinant, extracellular domain fused to the Fc region of human IgG) (UniProt P40189); assay: as above
[5] = target: T1, IL-11Rα (recombinant, extracellular domain fused to the Fc region of human IgG) (human); assay: as above
[6] = target: T1, IL-11Rα (recombinant, extracellular domain fused to the Fc region of human IgG) (human); assay: phage binding assay; competition: …-phage on immobilized IL-11Rα with rising concentrations of the cognate synthetic peptide; only the target purified
[7] = target: synthetic cyclic peptide …; assay: NMR titration; 1D-1H-NMR spectra of the peptide alone at increasing concentrations up to 400 µM, 25°C; test for oligomerization; both purified
[8] = target: T1, IL-11Rα (recombinant, extracellular domain fused to the Fc region of human IgG) (human); assay: condition: 10^9 TU of phage; − is a ratio of binding to IL-11Rα/binding to BSA <6; phage binding assay; alanine-scanning phage on immobilized IL-11Rα, done as a1; result given as grade of the ratio binding to IL-11Rα / binding to BSA; in duplicate, repeated at least four times; only the target purified

Binder	binding [1]	binding [8]	also measured
CGRRAGGSC […-phage (phage displaying the peptide …)]	binds	–	binding [2]: no binding (tested: 10^9 TU of phage); binding [3]: no binding (tested: 10^9 TU of phage); binding [4]: no binding (tested: 10^9 TU of phage); binding [5]: binds; binding [6]: binds
CARRAGGSC [… phage (Gly^2 to Ala mutant of the … phage)]	binds	–	–
CGARAGGSC (source: phage display, cloned into SfiI-digested fUSE5 vector) [CGARAGGSC phage (Arg^3 to Ala mutant of the … phage)]	binds	–	–
CGRRAAGSC (source: phage display, cloned into SfiI-digested fUSE5 vector) [CGRRAAGSC phage (Gly^6 to Ala mutant of the … phage)]	binds	–	–
CGRRAGGSC (cyclized (Cys-s-s-Cys)) [synthetic cyclic peptide …]	–	–	binding [7]: no binding (tested: up to 400 µM)
CGRAAGGSC [… phage (Arg^4 to Ala mutant of the … phage)]	–	no binding	–
CGRRAGASC [… phage (Gly^7 to Ala mutant of the … phage)]	–	no binding	–
CGRRAGGAC [… phage (Ser^8 to Ala mutant of the … phage)]	no binding (tested: 10^9 TU of phage)	–	–
CRGSGAGRC [… phage (scrambled version of …)]	–	no binding	–
